Measured values reported in PubChem BioAssay AID624202 (National Center for Advancing Translational Sciences (NCATS), 2012).
Among all 380,000 compounds or so, about 4,000 (1.1%) were called active. This list was built around the results that the source calls inconclusive (neither active nor inactive); the mix of calls is not that of the screen. The call rests on the fitted dose curve; in most records, active means well fitted activation curve with a large enough effect; inconclusive means small, poorly fitted or top-dose-only effect; inactive means no such curve, though single readings can be large or run the other way. Potencies of inconclusive entries are doubtful fits and often do not repeat.
Potency means the concentration at half of the fitted maximal effect; tags describe the fitted curve by direction and shape.

Assay: qHTS Assay to Identify Small Molecule Activators of BRCA1 Expression; further: nearly all actives have a fitted effect of over 80% in size
Details: MCF7-BRCA1-FFLuc reporter, luminescence, 48 h; activation: at 46.1 µM (top of the series), scaled: vehicle 0%, 10 µM genistein 100% unless noted
How it was run: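 MCF7-BRCA1-FFLuc cells, 2000/well in phenol-red-free MEM, attached 2 h then treated 48 h at 37 C. Luciferase luminescence read 15 min after reagent; normalized to genistein maximum activation (10microM) and DMSO, concentration-response fitted.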
In the case of `COc1ccc(/C=N/Nc2ccccc2C(=O)O)cc1Cn1cc([N+](=O)[O-])cn1`, the Potency is reported as inconclusive: 35.5 µM [activator, single point]. In the case of `COC(=O)c1ccc(N=NN2CCCCCC2)cc1`, the Potency is reported as inconclusive: 2.51 µM [activator, full curve, poor fit]. With `O=C(CSc1n[nH]c(-c2ccccc2F)n1)Nc1cc(F)ccc1F` the “activation” value was inactive: 25.6%. With `CCOc1ccc2nc(NC(=O)C3(C)CC3(Br)Br)sc2c1` (centres undefined) the Potency was inconclusive: 2.24 µM [activator, full curve, poor fit]. For `C[C@H](CCC(=O)OCc1cn(CC(=O)c2ccc(O)cc2)nn1)C1CC[C@H]2[C@@H]3CC[C@@H]4C[C@H](O)CC[C@]4(C)[C@H]3C[C@H](O)[C@]12C` (some centres undefined), the “activation” value was inactive: -28.5%. For `c1ccc2[nH]c(-c3ccncc3)nc2c1`, the Potency was inconclusive: 35.5 µM [activator, single point]. With `COc1ccccc1/C=C/c1nc(C#N)c(N(C)C)o1` the Potency was inconclusive: 35.5 µM [activator, single point]. With `O=C(CCl)N(c1ccccc1)c1c[nH]c2ccccc12` the “activation” value was inactive: -93.5%. For `c1csc(-c2noc(COc3ccc4c(c3)CCCC4)n2)c1`, the Potency was active: 3.98 µM. With `Cc1ccc(SCCC(=O)N2CCC(C)CC2)cc1` the Potency was active: 10 µM. In the case of `Cc1nn(C)c(C)c1CNC(=O)Nc1ccc2c(c1)OCO2`, the Potency is reported as inconclusive: 10 µM [activator, partial curve, poor fit]. In the case of `CCOC(=O)Nc1ccc(NC(=O)c2ccccc2F)cc1`, the Potency is reported as inconclusive: 15.8 µM [activator, partial curve, poor fit]. In the case of `CC(C)C(C(=O)Nc1nccs1)c1ccc(Cl)cc1` (centres undefined), the “activation” value is reported as inactive: -17.3%. In the case of `Cc1cc(C)n2cc(CSc3nc4ccccc4s3)nc2n1`, the Potency is reported as inconclusive: 7.08 µM [activator, partial curve, poor fit]. In the case of `O=C(NCc1ccccn1)c1ccc(-c2ccccc2)cc1`, the Potency is reported as active: 12.6 µM. With `COc1ccccc1-c1noc(-c2ccco2)n1` the Potency was inconclusive: 2.82 µM [activator, full curve, poor fit]. With `O=C(NCc1ccco1)c1cnn2c(C(F)(F)F)cc(-c3ccccc3)nc12` the “activation” value was inactive: -38.2%. With `COC(=O)c1ccc(OS(=O)(=O)N(C)C)cc1` the Potency was inconclusive: 22.4 µM [activator, single point]. In the case of `CC(C)Nc1ccc(-c2nc(-c3ccco3)no2)cc1[N+](=O)[O-]`, the “activation” value is reported as inactive: 27.1%. In the case of `COC(=O)c1ccc(C(=O)OC)c(NC(=O)COC(=O)c2ccc(OC)c(OC)c2OC)c1`, the “activation” value is reported as inactive: -25.7%. For `COc1ccccc1Cn1c(=S)[nH]c2cc(C(=O)NCC(OC)OC)ccc2c1=O`, the “activation” value was inactive: -20.6%. With `COC(=O)Nc1ccccc1C(=O)N1CCN(c2ccc(C)cc2)CC1` the Potency was inconclusive: 35.5 µM [activator, single point]. With `CCc1ccc2[nH]c(C(=O)Nc3ccc(C)c(F)c3)cc2c1` the Potency was inconclusive: 3.16 µM [activator, partial curve, poor fit]. In the case of `COc1ccc(C2=Cc3ccc(OC(C)=O)cc3OC2)cc1`, the Potency is reported as inconclusive: 3.55 µM [activator, full curve, poor fit]. With `COc1ccc(C(=O)Nc2ccc3ccccc3n2)c(OC)c1OC` the activation was inconclusive: -36% [activator]. For `Cc1cc(C)n(CCc2nc(-c3ccc(-c4ccccc4)cc3)cs2)n1`, the Potency was inconclusive: 12.6 µM [activator, partial curve, poor fit]. In the case of `OC(c1ccccc1)c1ncc(-c2ccccc2Cl)[nH]1` (centres undefined), the Potency is reported as active: 10 µM. In the case of `CCN1C(=O)[C@H]2[C@@H](c3ccc(OC)cc3)N[C@]3(CCCN(Cc4ccc(C(F)(F)F)cc4)C3=O)[C@H]2C1=O`, the “activation” value is reported as inactive: -12%. For `Nc1ccc(C(=O)N/N=C/c2cn(Cc3ccccc3F)c3ccccc23)cc1`, the “activation” value was inactive: 12.9%. For `O=c1c(-c2ccccc2)cocc1-c1ccccc1`, the Potency was inconclusive: 12.6 µM [activator, partial curve, poor fit]. For `CC1C/C(=N/N2C(=O)CSC2=S)CC(C)(C)C1` (centres undefined), the “activation” value was inactive: -20.9%. With `CCOc1cc(Br)c(CC(=O)NC2CCCCCC2)cc1OCC` the “activation” value was inactive: -34.3%. For `COc1cc(OC)c(/C=C/c2ccncn2)c(OC)c1`, the “activation” value was inactive: 6.29%. For `O=C1CC(c2ccc3c(c2)OCO3)Sc2nc3ccccc3n21` (centres undefined), the Potency was inconclusive: 31.6 µM [activator, single point]. For `Cc1cc(=O)oc2cc(OCc3ccc(C(=O)OCC(=O)Nc4ccc(N(C)C)cc4)cc3)ccc12`, the “activation” value was inactive: 21.3%. With `O=C(N/N=C/c1ccccc1Cl)c1cccc(F)c1` the Potency was inconclusive: 6.31 µM [activator, partial curve, poor fit]. With `O=S(=O)(NCC1CCCO1)c1cc(Cl)ccc1Cl` (centres undefined) the “activation” value was inactive: 12.3%. For `Cc1ccc(NC(=O)c2cncc(Br)c2)c([N+](=O)[O-])c1`, the Potency was inconclusive: 11.2 µM [activator, partial curve, poor fit]. With `O=C(NCCc1cccc(Cl)c1)c1cccnc1` the Potency was inconclusive: 10 µM [activator, partial curve, poor fit]. In the case of `COc1ccc(Cc2c(-c3cccc(Br)c3)nc3ccc(Br)cn23)c(C)c1`, the “activation” value is reported as inactive: 67.8%. With `Cc1c(C(=O)N2CCc3ccccc32)oc2c1C(=O)CC(C)(C)C2` the Potency was active: 12.6 µM. With `CC(=O)Nc1nn(CC(C)C)c2nc3ccc(C)cc3cc12` the “activation” value was inactive: -4.39%. For `O=C(NCc1ccco1)c1ccc(COc2cc(Cl)ccc2Cl)cc1`, the Potency was active: 7.94 µM. For `CC(=NNC(=S)N1CCCCCC1)c1ccccn1`, the activation was inconclusive: -87% [activator]. With `CCC(CC)NC(=O)CSc1nnc(-c2c[nH]c3ccccc23)o1` the “activation” value was inactive: 0%. In the case of `Cc1ccc(NC(=O)C2Cc3ccccc3O/C2=N\O)cc1C` (centres undefined), the Potency is reported as inconclusive: 15.8 µM [activator, partial curve, poor fit]. For `O=C(NCCc1cccc(Cl)c1)c1cccs1`, the Potency was inconclusive: 2 µM [activator, partial curve, poor fit]. With `CC(C)(C)c1ccc(-c2conc2N)cc1` the Potency was inconclusive: 2.24 µM [activator, full curve, poor fit]. For `CCOC(=O)N1CCN(C(=O)c2ccc3c(c2)sc2nc(-c4ccccc4)cn23)CC1`, the Potency was active: 10 µM.
